Results taken from PubChem BioAssay AID686970 (National Center for Advancing Translational Sciences (NCATS), 2013).
The campaign covered roughly 360,000 compounds. About 6,000 (1.7%) were called active. Inconclusive results, whose numbers are uncertain, are shown with a selection of clear calls. Calls come from the whole dose curve; as a rule, active = well fitted cell-killing curve with a large enough effect; inconclusive = small, poorly fitted or top-dose-only effect, or effect the other way; inactive = flat fitted curve, though single readings scatter. No potency is given beside an inconclusive call; the fits are too rough.

assay: qHTS for induction of synthetic lethality in tumor cells producing 2HG: qHTS for the HT-1080-NT fibrosarcoma cell line; details: HT-1080-NT fibrosarcoma viability, CellTiter-Glo ATP luminescence, 48 h; activity, negative = less viability: at 46.1 µM (top of the series) unless noted;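 note: NT is the 2HG producing partner of a matched IDH1 knockdown line; nearly all actives have a fitted effect of over 55% in size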;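 for activity, negative = less viability: 0% = DMSO-treated cells and -100% = media-only wells without cells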
In short: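 Viability by CellTiter-Glo luminescence after 48 h compound exposure at 37C of HT-1080-NT cells (750/well, RPMI, 5% FBS). % activity scaled between DMSO wells and medium-only wells, then curve-fitted and categorized by curve class.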
Potency is the fitted concentration of half-maximal effect; tags give direction and shape of the fitted curve.

| SMILES | Potency | activity, negative = less viability |
| --- | --- | --- |
| Clc1cccc(Cc2c(C3CCCCC3)nc3ccc(Cl)cn23)c1 | inconclusive [cytotoxic, single point] |  |
| CCCCN(C=O)c1c(CC)nc2ccc(C(=O)Nc3cc(-c4ccccc4)ccc3OC)cn12 | inconclusive [cytotoxic, single point] |  |
| CCCCCCCCN1C(=O)[C@H](CC(=O)NCCCCc2ccccc2)C[C@@]2(C(=O)OCC)CCCC=C12 | inconclusive [cytotoxic, single point] |  |
| COc1cc(CNC2CCCC2)c(Br)cc1OCc1ccccc1 | inconclusive [cytotoxic, single point] |  |
| CCOC(=O)[C@H]1[C@H]2COc3ccc(Cl)cc3[C@@H]2N2C(=O)c3ccc(Cl)cc3NC(=O)[C@@]12C |  | inconclusive: -30.7% [cytotoxic] |
| Cc1onc(-c2ccccc2Cl)c1C(=O)OCc1cnc(Cl)s1 |  | inactive: -4.05% |
| O=C(/C=C/c1ccc(Cl)c([N+](=O)[O-])c1)c1ccc(O)cc1 | inconclusive [cytotoxic, single point] |  |
| Cc1cc(N/N=C/c2cccc(F)c2)nc(NCc2ccccc2)n1 | active: 20.6 µM |  |
| CCc1nc2ccc(C(=O)NCC3CCCCC3)cn2c1N(C)Cc1ccc(OC)cc1 | inconclusive [cytotoxic, single point] |  |
| CCc1ccc(NC(=O)CSc2nc3ccccc3c(=O)n2CCCC(=O)NCCCN2CCOCC2)cc1 | inconclusive [cytotoxic, single point] |  |
| CSc1cccc(NC(=S)N(CCCN2CCCC2)Cc2cccs2)c1 |  | inconclusive: -30.7% [cytotoxic] |
| Cc1[nH]c(-c2ccc(F)cc2)cc1C(=O)N1CCN(c2cccc(Cl)c2)CC1 | inconclusive [cytotoxic, single point] |  |
| CCCC(=O)N(c1ccc2oc(=O)sc2c1)S(=O)(=O)c1cccs1 |  | inconclusive: -33.5% [cytotoxic] |
| O=C(CC1C(=O)NCCN1Cc1ccccc1C(F)(F)F)NCCN1CCCCC1=O (stereo not given) |  | inactive: -0.691% |
| CC(=O)Nc1cccc(C(=O)Nc2ccccc2N2CCOCC2)c1 | inconclusive [cytotoxic, single point] |  |
| CN1C(=O)/C(=C/c2ccccc2Cl)Sc2ccc(C(=O)NCc3cccnc3)cc21 | inconclusive [cytotoxic, single point] |  |
| O=C(Nc1ccc2c(c1)OCCO2)c1[nH]c(C(F)(F)F)nc1-c1ccccc1 | inconclusive [cytotoxic, single point] |  |
| O=C(CN1C(=O)CCSc2ccccc21)Nc1ccc2c(c1)OCCO2 |  | inactive: 4.58% |
| CC(C)c1ccc(OCc2ccc(C(=O)N3CCN(c4ccccn4)CC3)cc2)cc1 | inconclusive [cytotoxic, partial curve] |  |
| COc1ccc2sc(-c3ccc(N(C)C)cc3)c(C#CCCO)c2c1 | active: 16.4 µM |  |
| CCOc1ccccc1NC(=O)CSc1nc2nc(-c3cccs3)cc(C(F)(F)F)c2c(=O)[nH]1 | inconclusive [cytotoxic, single point] |  |
| CC(=O)N1CC(=O)N=C1SCC(=O)Nc1nc(-c2ccccc2)c(-c2ccccc2)s1 | inconclusive [cytotoxic, single point] |  |

| SMILES | Potency | activity, negative = less viability |
| --- | --- | --- |
| COc1ccccc1CNC(=O)C[C@@H]1C[C@H]2c3cc(NC(=O)c4ccc5c(c4)OCO5)ccc3O[C@H]2[C@@H](CO)O1 |  | inactive: -8.59% |
| Cc1nc2ccc(C(=O)NCCCn3ccnc3)cn2c1N(C)C(=O)CCc1ccccc1 |  | inactive: 29% |
| COc1ccc(-c2sc(Nc3ccc(F)c(F)c3F)nc2CCC(=O)NN)cc1 | inconclusive [cytotoxic, single point] |  |
| CCOC(=O)c1c(C)[nH]c(C)c1C(=O)COC(=O)c1cc(OC)cc(OC)c1 | inconclusive [cytotoxic, partial curve] |  |
| Cn1c(N)c(C(=O)Nc2cccc(Cl)c2)c(=O)n(C)c1=O | inconclusive [cytotoxic, single point] |  |
| CCN(CC)CCn1c(=S)[nH]c2ccc(Cl)cc2c1=O | inconclusive [cytotoxic, single point] |  |
| COc1ccccc1/C=C/C=N/NC(=O)c1cc(-c2ccco2)[nH]n1 |  | inactive: -29.4% |
| CN1C(=O)CC(c2ccccc2)C1=O (stereo not given) | inconclusive [rising, partial curve, poor fit] |  |
| Cc1cc(C)c(C(=O)c2ccc(C(=O)N(C(C)C)C(C)C)cc2)c(C)c1 | inconclusive [cytotoxic, single point] |  |
| Cc1cccc(-n2ncc3c2CCCC3NC(=O)C2=CC(=O)CC(C)(C)O2)c1C (stereo not given) | inconclusive [cytotoxic, single point] |  |
| Cc1nc(C/C(=N\Nc2ccccc2)c2ccc(O)cc2O)cs1 | inconclusive [cytotoxic, single point] |  |
| COC(=O)c1c(C)oc(C)c1S(=O)(=O)N(Cc1ccccc1)C(C)C |  | inactive: -5.87% |
| O[C@H]1C[C@H](c2ccc(Cl)cc2)N(CC2CCCCC2)C[C@@H]1n1cc(C2CC2)nn1 | inconclusive [cytotoxic, single point] |  |
| Cc1ccccc1Nc1nc(N)nc(COC(=O)c2cccc(S(=O)(=O)NCc3ccccc3)c2)n1 | inconclusive [cytotoxic, single point] |  |
| CCCn1c(=N)c(C(=O)NCC2CCCO2)cc2c(=O)n3cccc(C)c3nc21 (stereo not given) | inconclusive [cytotoxic, single point] |  |
| COc1cc2c(cc1OC)C(=O)N1[C@H]3c4cc(C)ccc4OC[C@@H]3[C@H](c3ccccc3)[C@]1(C)C(=O)N2 | inconclusive [cytotoxic, partial curve] |  |
| Cc1nn(Cc2ccc(C(=O)N3N=C(C(F)F)CC3(O)C(F)F)cc2)c(C)c1[N+](=O)[O-] (stereo not given) | inconclusive [cytotoxic, single point] |  |
| Cc1nnnn1/C(=C\c1ccccc1)C(=O)OCC(=O)Nc1cccc(S(=O)(=O)N(C)C)c1 | inconclusive [cytotoxic, single point] |  |
| COc1cccc(CC2(CO)CCCN(Cc3c(C)cc(C)cc3-n3cccn3)C2)c1 (stereo not given) | inconclusive [cytotoxic, single point] |  |
| COc1ccc(-c2cccc(C(=O)Nc3ccc(OC)c(OC)c3)c2)cc1 |  | inconclusive: -31.4% [cytotoxic] |
| O=C(COc1ccccc1)NNC(=S)NC(=O)c1ccccc1 | inconclusive [cytotoxic, single point] |  |
| COc1ccc(C2=NN(C(=O)CSc3nc4ncc(Cl)cc4[nH]3)C(c3ccco3)C2)cc1 (stereo not given) |  | inconclusive: -31.7% [cytotoxic] |

| SMILES | Potency | activity, negative = less viability |
| --- | --- | --- |
| COc1cc2c(cc1OC)CN(CCC(C)c1ccc(Cl)cc1)CC2 (stereo not given) |  | inactive: -38.4% |
| O=C(Nc1ccc(N2CCOCC2)c(Cl)c1)c1ccc(Cl)cc1 | inconclusive [cytotoxic, partial curve] |  |
| CCCCC(=O)N1CCN(c2nc3ccc(Br)cc3s2)CC1 | inconclusive [cytotoxic, single point] |  |
| COc1ccc(S(=O)(=O)Nc2ccc3c(c2)CC(=O)N([C@H](C)CO)C[C@H](C)[C@H](CN(C)C(=O)Nc2ccc4c(c2)OCO4)O3)cc1 | inconclusive [rising, single point] |  |
| O=C(c1ccc(Cl)c(S(=O)(=O)NCc2ccco2)c1)N1CCN(c2ccccc2F)CC1 | inconclusive [cytotoxic, single point] |  |
| CN1CCN(Cc2cc(COCc3ccccc3)c3cccnc3c2O)CC1 | inconclusive [cytotoxic, single point] |  |
| CC1=CC(C)(C)NC(=S)N1c1ccc2ccccc2c1 | active: 5.62 µM |  |
| NC(CCCCCP(=O)(c1ccccc1)c1ccccc1)C(=O)O (stereo not given) |  | inactive: -1.12% |
| Cc1ccc(C(=O)CSc2nnc(Cn3nnc4ccccc43)n2C)cc1 | inconclusive [cytotoxic, single point] |  |
| Cc1onc(-c2ccccc2)c1C(=O)NC(=S)NNC(=O)c1ccccc1O | active: 8.2 µM |  |
| CC1CCC2C(=O)N(c3ccc(Cc4ccncc4)cc3)C(=O)C2C1 (stereo not given) | inconclusive [cytotoxic, partial curve] |  |
| Cc1ccccc1Oc1nc(-c2ccccn2)nc2ccccc12 | inconclusive [cytotoxic, single point] |  |
| Cn1c(SCc2ccc(C#N)cc2Cl)nc2ccccc21 |  | inactive: 6.64% |
| CCOC(=O)Cc1csc(NC(=O)CSc2nnc(-c3ccc(NS(=O)(=O)CC)cc3)o2)n1 |  | inactive: -0.0674% |
| COc1cc(C)c(C2NC(=O)c3ccccc3N2)cc1C (stereo not given) | active: 5.8 µM |  |
| CCCCNC(=O)[C@H]1N2C(=O)c3c(ccc(OC)c3OC)C2SC1(C)C (stereo not given in full) |  | inactive: -3.32% |
| OC(c1cccc(Cl)c1)c1ncc(-c2ccc(C(F)(F)F)cc2)[nH]1 (stereo not given) | inconclusive [cytotoxic, single point] |  |
| Cc1cc(C)c2nc3nc(C)c(C)cc3c(N)c2c1 | inconclusive [cytotoxic, single point] |  |
| O=C(Nc1ccc(F)cc1)C1CCCN(S(=O)(=O)c2cccc3cccnc23)C1 (stereo not given) |  | inactive: -7.4% |
| CCc1ccc(OC2(C)CCN(Cc3ccc4c(c3)OCCO4)C2)cc1 (stereo not given) | inconclusive [cytotoxic, single point] |  |
| C#CCn1c(=NC(=O)c2ccc(Br)s2)sc2cccc(OC)c21 | inconclusive [cytotoxic, single point] |  |
